Assay results published in the RNAGym collection of RNA variant scans (doi:10.7554/elife.90254).
Read counts are not given, so values of variants with three or more changes are uncertain.

B1: LINE1-mini (parent)
chain: GGCAGAGCUCAACACAGCGUGGCAAAGUGGCUGUGGCUAGACUGCC

Variants of: B1
Assay: self-cleavage, relative activity (ratio to wild type); higher = more cleavage; in vitro, sequencing; the parent is a self-cleaving ribozyme

| Variant | self-cleavage |
| --- | --- |
| G29A G36C C37U | 0.02 |
| C3G U20C G40A | 0.19 |
| G5A C10U A39C | 0.08 |
| G1U C18U G22C G33A | 0.06 |
| A24U G29A G40C | 0.04 |
| U20A G21U C23G G27U G33A | 0.2 |
| A11C A12C G19A G27U C42G G44A | 0.01 |
| C8A G21U C31U A39G | 0.02 |
| C3U G17C U28G | 0.18 |
| C3U U20C G30A | 0.29 |
| C3A U9C C13A C15U | 0.05 |
| C10G G22A A41U C45U | 0.05 |
| G7A C8U G36C C45G | 0.25 |
| G2U C3A U32A | 0.05 |
| U32G A39U C42G | 0 |
| C8A U32C G35U C42A | 0.18 |
| G2U U9A C13U G27U | 0.01 |
| G7A C8A A14U G21A U34G A39U | 0.23 |
| G1U G21U U38G | 0.03 |
| A4U G5C U28A C46G | 0.02 |
| C8U G22C C37U | 0.06 |

| Variant | self-cleavage |
| --- | --- |
| C18U G27U G40A | 0.04 |
| G2A C3A G19A G29A U43C | 2.13 |
| G17A C18G G30A | 0.11 |
| G7C C18A G19C | 0.09 |
| C13A A14C G17C | 0.01 |
| C3U C10G A16C G22C G36C A39G | 0.01 |
| C3A G17C G19A U20G A25C | 0.36 |
| G1U G7C U9C A24G C37A | 0.06 |
| C8U A11G A26C U43A | 0.01 |
| G5C C18U G22C G36C C37U | 0.02 |
| C3A G7U G27A C31A | 0.48 |
| G2A C10A G19U A24G C46A | 0.06 |
| G5U C10U G19C C23A C31U G33C | 0.01 |
| G17U U20A C31U C46U | 0.05 |
| C3U G22C A24U C37U | 0.03 |
| G36C C42A G44C C45U | 0.03 |
| A11C C15U G19U G22U | 0.03 |
| A4C C8U U20G C23G G27U G29U G44U | 0.07 |
| A25U A39U C46A | 0.31 |
| A16U G29C G40C | 0.02 |
| U9A C10A G35A A41U G44A | 0.03 |

| Variant | self-cleavage |
| --- | --- |
| C3U G7U A16C G30C | 0.12 |
| G7A A11C G19U A41C | 0.01 |
| G5A C13U C15A G22A C31G G33U A41G | 0.07 |
| U9C A11U U20G U32A A41C | 0 |
| G7A A11U A25U | 0.01 |
| U9G C18A G33A U34C | 0.13 |
| G17C C18G G19U A25C G30C G44U | 0.02 |
| C8A A25U U28G | 0.15 |
| A4U U32G G40U G44A | 0.04 |
| G5A C8G C23U G40U | 0.02 |
| G7U A14C G21U | 0.06 |
| G2A C3A G19C G33U | 1.31 |
| C3U G27U U38A | 0.18 |
| C8U C10A G29A | 0.04 |
| A6C U20G C31G G35A U38A | 0.01 |
| G5A U9C U28G | 0.04 |
| A25C U32G A41C | 0.04 |
| C3A A6G A12G G22C A39U | 0.04 |
| G7A G21A C23A C37U | 0.03 |
| A4U U32G C45G C46A | 0.02 |
| G1A C3U C8A U9C A16G G29C G33C A39U | 0.08 |

| Variant | self-cleavage |
| --- | --- |
| G7A C10U A11C C23U C37U | 0.01 |
| C3A C13U A26C G40U | 0.12 |
| A4C G22A A41U | 0.11 |
| C8G A14U C18G U43C | 0.01 |
| G27A G44A C46U | 0.05 |
| G1A G7C C8G G22A C31G G40U C46U | 0.03 |
| G2U C13A C18G G44C | 0.01 |
| C3U C13A C23U | 0.15 |
| G30C G35U U38A | 0.06 |
| A6G C13A A14U A25U | 0.08 |
| G1A G19C G29U C45G | 0.26 |
| A4C C8A C18U U20G A25C G27A U38C | 0.04 |
| A4G G22C U43C | 0.24 |
| C23G G29C G36U C42A | 0.03 |
| G1A U28C G40U | 0.1 |
| G2A C3G C8U G36U U38G | 1.01 |
| G1A C13A C42G | 0.05 |
| G1C G2U C10U A11U C37U | 0.01 |
| U9G C18G A25U U38A A39U A41G C42G U43G | 0.03 |
| G5A A11C A41U C45G | 0.01 |
| C10A C15A A16U C18U G22C G29C | 0.03 |
